{
  "source": "the supplement of paper PMC8748497",
  "note": "The list shows a part of the results.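 The calls were made as follows: active = GRHL reporter fold change of at least 2 over DMSO at 10 µM; inactive = below 2-fold.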 Most values come without repeats; read them as rough.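 Also: stable HEK293 line carrying repeated GRHL consensus sites upstream of a minimal promoter driving luciferase, luminescence read 24 h post-treatment, normalized to 0.5% DMSO vehicle wells.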",
  "data": [
    {"tested_on": "HEK293 GRHL-luciferase reporter", "test": "GRHL luciferase reporter activity, fold change over DMSO control; higher = stronger GRHL reporter activation", "settings": "10 µM; 24 h", "values": [
      {"smiles": "Nc1ccccc1S(N)(=O)=O", "GRHL luciferase reporter activity": "inactive: 1.07"},
      {"smiles": "COc1ccc(C(=O)c2ccc(O)cc2)c(O)c1O", "GRHL luciferase reporter activity": "active: 2.29"},
      {"smiles": "CCN(CC)CCOC(=O)c1ccc(N)cc1", "GRHL luciferase reporter activity": "inactive: 0.947"},
      {"smiles": "O=C(O)[C@H](O)[C@@](O)(Cc1ccc(O)cc1)C(=O)O", "GRHL luciferase reporter activity": "inactive: 1.05"},
      {"smiles": "Oc1c(Cl)cc(Cl)cc1Sc1cc(Cl)cc(Cl)c1O", "GRHL luciferase reporter activity": "inactive: 1.11"},
      {"smiles": "CCCCCCCCCC[C@H](C(=O)O)[C@]1(C(=O)O)CCC(=O)O1", "GRHL luciferase reporter activity": "inactive: 1.03"},
      {"smiles": "CCCCS(=N)(=O)CCC(N)C(=O)O", "note": "(configuration not stated)", "GRHL luciferase reporter activity": "inactive: 0.998"},
      {"smiles": "C[N+]1(C)[C@@H]2CC[C@H]1C[C@@H](OC(=O)C(O)c1ccccc1)C2", "note": "(some centres not stated)", "GRHL luciferase reporter activity": "inactive: 0.896"},
      {"smiles": "O=C([O-])C(O)[C@H](O)[C@@H](O)[C@H](O)[C@H](O)CO.O=C([O-])C(O)[C@H](O)[C@@H](O)[C@H](O)[C@H](O)CO.[Ca+2]", "note": "(some centres not stated)", "GRHL luciferase reporter activity": "inactive: 0.996"},
      {"smiles": "CCCCCCCCCCCCCCCCCCOCC(O)CO", "note": "(configuration not stated)", "GRHL luciferase reporter activity": "inactive: 1.03"},
      {"smiles": "Cc1cc(O)c(C=O)c2c1C(=O)Oc1c(C)c(O)c3c(c1O2)C(O)OC3=O", "note": "(configuration not stated)", "GRHL luciferase reporter activity": "inactive: 0.881"},
      {"smiles": "Cc1[nH]ccc2c1[nH]c1cc(=O)ccc12", "GRHL luciferase reporter activity": "inactive: 0.44"},
      {"smiles": "Nc1ccccc1C(=O)CC(N)C(=O)O", "note": "(configuration not stated)", "GRHL luciferase reporter activity": "inactive: 0.863"},
      {"smiles": "COc1ccc2c(c1OC)C(=O)O[C@@H]2[C@H]1c2c(cc3c(c2OC)OCO3)CCN1C", "GRHL luciferase reporter activity": "inactive: 1.57"},
      {"smiles": "N[C@@H](COP(=O)(O)O)C(=O)O", "GRHL luciferase reporter activity": "inactive: 0.996"},
      {"smiles": "O=C(OCc1ccccc1)c1ccccc1", "GRHL luciferase reporter activity": "inactive: 1.99"},
      {"smiles": "O=C[C@H](O)[C@H](O)CO", "GRHL luciferase reporter activity": "inactive: 1.18"}
    ]}
  ]
}
